Out of some 230,000 compounds screened, about 3,600 (1.6%) were called active. Inconclusive means that the source gave no clear call. Such entries were picked first, then a sample of the others. Calls follow the shape of the dose curve; as a rule, active = well fitted inhibition curve with a large enough effect (not every such curve was filed as active); inconclusive = small, poorly fitted or top-dose-only effect, or another doubt; inactive = no such curve, though single readings can be large or run the other way. Where the call is inconclusive, the potency comes from a doubtful curve fit.
Molecular target: Lysine-specific demethylase 4E (Homo sapiens) (UniProt B2RXH2)
Chain of UniProt B2RXH2 (B2RXH2 whole entry, looked up, the tested form may be a part): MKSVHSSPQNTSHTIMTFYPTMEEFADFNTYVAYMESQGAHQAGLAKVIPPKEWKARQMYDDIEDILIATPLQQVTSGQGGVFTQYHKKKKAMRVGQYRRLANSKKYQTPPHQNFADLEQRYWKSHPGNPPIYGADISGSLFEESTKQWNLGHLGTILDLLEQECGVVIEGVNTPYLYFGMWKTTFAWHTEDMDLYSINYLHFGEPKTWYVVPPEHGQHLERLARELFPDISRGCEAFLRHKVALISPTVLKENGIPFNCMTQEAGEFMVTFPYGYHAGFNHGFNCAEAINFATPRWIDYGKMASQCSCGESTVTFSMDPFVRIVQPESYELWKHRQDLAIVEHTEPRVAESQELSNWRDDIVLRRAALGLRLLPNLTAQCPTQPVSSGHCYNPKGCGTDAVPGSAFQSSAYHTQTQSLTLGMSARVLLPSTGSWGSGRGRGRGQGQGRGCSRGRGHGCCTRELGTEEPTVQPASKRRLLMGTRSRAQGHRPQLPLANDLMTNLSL
Assay: qHTS Assay for Inhibitors of Human Jumonji Domain Containing 2E (JMJD2E)
Details: JMJD2E catalytic domain, FDH-coupled NADH fluorescence (FDH is formaldehyde dehydrogenase); series mostly up to 57.1 µM; activity change, negative = inhibition: at the top concentration
Also: nearly all actives have a fitted effect of over 50% in size.
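For activity change, negative = inhibition in this document: 0% = wells with enzyme and -100% = buffer wells without enzyme.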
Potency is read from the fitted curve at half-maximal effect; tags tell the direction and shape of the fitted curve.

SMILES | Potency | activity change, negative = inhibition
CN(C)c1nc(-c2cccs2)cc(C(F)(F)F)c1C#N | inconclusive: 25.1 µM [inhibitor, partial curve] | 
CCCCC(=O)NC(c1cccs1)c1cc(Cl)c2cccnc2c1O (stereo not drawn) | inconclusive: 28.2 µM [inhibitor, single point] | 
O=C(N/N=C/c1ccccc1C(=O)O)c1ccc(COc2cccc3cccnc23)cc1 |  | inactive: -5.48%
COc1ccccc1NC(=O)c1oc2ccc(C)cc2c1C | inconclusive: 31.6 µM [inhibitor, single point] | 
CC(=C\C(=O)O)/C(=C\c1cccc2ccccc12)C(=O)O | inconclusive: 39.8 µM [inhibitor, single point] | 
CC(=O)/C=C1/C(=O)Nc2ccccc21 |  | inactive: 1.03%
N#CC1=C(N)OC2=C(C(=O)CCC2)C12CCC1(CC2)OCCO1 | inconclusive: 39.8 µM [inhibitor, single point] | 
CCOC(=O)N1CCN(C(=O)C(=O)NNC(=O)COc2ccc(Cl)c(C)c2)CC1 | inconclusive: 25.1 µM [inhibitor, single point] | 
COc1ccc(C2=Nn3c(nnc3-c3ccco3)SC2)cc1OC | inconclusive: 31.6 µM [inhibitor, single point] | 
N#CC1=C(N)N(c2ccccc2)C(c2ccco2)C1(C#N)C#N (stereo not drawn) | inconclusive: 28.2 µM [inhibitor, partial curve] | 
Cc1cccc(OCC(=O)N2CCC(N3CCOCC3)CC2)c1 | inconclusive: 28.2 µM [inhibitor, single point] | 
Cc1ccc2oc(-c3ccco3)nc2c1 | inconclusive: 28.2 µM [inhibitor, partial curve] | 
CCS(=O)(=O)c1ccc2c(c1)N(S(C)(=O)=O)CC(C(=O)NN)O2 (stereo not drawn) |  | inactive: 54.3%
Cc1cc(=O)[nH]c(/N=C(\N)Nc2cccc3ccccc23)n1 |  | inactive: 4.15%
COc1cccc(/C=N/NC(=O)CCc2c(C)n[nH]c2C)c1O | inconclusive: 14.1 µM [inhibitor, partial curve] | 
COc1cc(OC)cc(C(=O)Nc2ccc(-c3nc4ccccc4o3)c(O)c2)c1 | inconclusive: 17.8 µM [inhibitor, partial curve] | 
COc1ccc(OC)c2c(N)c(C#N)c(C(F)(F)C(F)(F)F)nc12 | inconclusive: 2.24 µM [inhibitor, partial curve] | 
COc1ccc(C2C(C(=O)Nc3cccc(C)n3)c3ccccc3C(=O)N2C)cc1 (stereo not drawn) | inconclusive: 25.1 µM [inhibitor, partial curve] | 
CCOc1ccccc1Nc1nc2ccccc2n2cnnc12 | inconclusive: 37.7 µM [inhibitor, single point] | 
CCOC(=O)C1=C(C)NC(C)=C(C(=O)OCC)C1c1ccccn1 | inconclusive: 35.5 µM [inhibitor, single point] | 
COc1ccc(C(N)CCc2ccc(C)o2)cc1 (stereo not drawn) | inconclusive: 39.8 µM [inhibitor, single point] | 
CCOC(=O)c1c(NC(=O)c2cccs2)sc2c1CC(C)(C)OC2 | inconclusive: 35.5 µM [inhibitor, single point] | 
Clc1cccc(Nc2nc(-c3ccncc3)nc3ccccc23)c1 | inconclusive: 28.2 µM [inhibitor, single point] | 

SMILES | Potency | activity change, negative = inhibition
CCc1cc2cc(C)c(C)cc2nc1SCC(=O)NNC(=O)c1ccco1 |  | inactive: 3.31%
CC1C(=O)Nc2ccccc2N1C(=O)C1CC1 (stereo not drawn) |  | inactive: 7.66%
CCOC(=O)Cn1c(=NC(=O)c2sc3ccccc3c2Cl)sc2cc(S(N)(=O)=O)ccc21 | inconclusive: 22.4 µM [inhibitor, partial curve] | 
COc1ccc(NC(=O)/C(=C/c2ccc3c(c2)OCO3)NC(C)=O)cc1 |  | inactive: 3.81%
O=C(N/N=C\c1cn(-c2ccccc2)nc1-c1ccccc1)c1ccc2c(c1)OCO2 | inconclusive: 25.1 µM [inhibitor, single point] | 
O=C(Nc1cnccn1)Nc1ccc(Cl)cc1Cl | inconclusive: 35.5 µM [inhibitor, single point] | 
Cc1cc(NC(=O)CN(C)CCOc2ccccc2)ccc1Br | inconclusive: 35.5 µM [inhibitor, single point] | 
CCCC(=O)Nc1nnc(-c2cccc(OCC)c2)s1 | inconclusive: 20 µM [inhibitor, partial curve] | 
Cc1ccc(Nc2c(-c3ccc(C)o3)nc3ncccn23)cc1 |  | inactive: -6.34%
N#C/C(=C\c1ccc(Oc2ccc(C(F)(F)F)cc2[N+](=O)[O-])cc1)c1nc2ccccc2[nH]1 | inconclusive: 28.2 µM [inhibitor, single point] | 
Cc1cc(OCC(=O)N(C)C)c2c(-c3ccccc3)cc(=O)oc2c1 |  | inactive: -13.2%
CC(=O)N(CC1CCCO1)c1nnc(-c2cnccn2)s1 (stereo not drawn) | inconclusive: 35.5 µM [inhibitor, single point] | 
CC(C)C(=O)N1CCN(c2ccc(NC(=O)c3ccc4c(c3)OCCO4)cc2)CC1 | inconclusive: 35.5 µM [inhibitor, single point] | 
CCc1cccc(CC)c1-n1c(SCC(=O)c2c(N)n(C)c(=O)n(C)c2=O)nnc1-c1cccnc1 |  | inactive: 5.11%
COc1ccc(NC(=O)NS(=O)(=O)c2ccc(C)cc2)c(OC)c1 | inconclusive: 7.08 µM [inhibitor, full curve] | 
COc1ccc(C2CC(c3cccs3)=NN2C(=O)COC(=O)C2CCCCC2)cc1OC (stereo not drawn) | inconclusive: 35.5 µM [inhibitor, partial curve] | 
COC(=O)C1=CNC=C(C(=O)OC)C1c1cccc(OC)c1 | inconclusive: 28.2 µM [inhibitor, partial curve] | 
COc1ccccc1NC(=O)N(Cc1ccco1)Cc1cc2cc(C)cc(C)c2[nH]c1=O | inconclusive: 28.2 µM [inhibitor, partial curve] | 
CCOC(=O)c1c(C)c(/C=N/Nc2ccccc2)n(C)c1C |  | inactive: 18.9%
CN1CCN(S(=O)(=O)c2ccc(N(C)CC(=O)Nc3ccc(F)cc3)nc2)CC1 | inconclusive: 35.5 µM [inhibitor, single point] | 
O=C(NC(=S)N(Cc1ccccc1)Cc1ccccc1)C1CCCCC1 | inconclusive: 31.6 µM [inhibitor, partial curve] | 
CCN(CC)c1ccc(N=Cc2cc(Br)ccc2O)cc1 | inconclusive: 3.98 µM [inhibitor, full curve] | 
O=S(=O)(Nc1ccc(-c2csc(-c3ccccc3)n2)cc1)c1ccc(F)cc1 |  | inactive: -16.9%

SMILES | Potency | activity change, negative = inhibition
COc1cccc(S(=O)(=O)c2nc(C)c3c(n2)CCC3)c1 |  | inactive: 0.569%
FC(F)(F)c1cc(-c2cccs2)nc(N2CCOCC2)n1 | inconclusive: 39.8 µM [inhibitor, single point] | 
CCOC(=O)C1CCN(C(=O)Nc2ccc3nc(-c4ccco4)c(-c4ccco4)nc3c2)CC1 | inconclusive: 28.2 µM [inhibitor, partial curve] | 
Cc1ccc(O)c(/C=N/NC(=O)C2=NNC(c3ccccc3)(c3ccccc3)C2)c1 | inconclusive: 35.5 µM [inhibitor, single point] | 
COc1ccc(/C=N/Nc2nc(NCc3ccco3)nc(Nc3ccc(OC)cc3)n2)cc1 | inconclusive: 15.8 µM [inhibitor, partial curve, poor fit] | 
CCCCNC(=O)CCC(=O)NNc1nc2ccccc2c2nc(-c3ccccc3)nn12 | inconclusive: 7.08 µM [inhibitor, single point] | 
CCOC(=O)c1ccccc1NC(=O)N[C@@H](C)C(=O)OC | inconclusive: 15.8 µM [inhibitor, partial curve] | 
COCc1c(C(=O)OCc2c(C)noc2C)oc2ccccc12 | inconclusive: 25.1 µM [inhibitor, partial curve] | 
Cc1cc(OCc2ccc(C(=O)n3cccn3)o2)ccc1Cl | inconclusive: 39.8 µM [inhibitor, single point] | 
C=CCOc1cccc(C2/C(=C(/O)c3ccc(C)cc3)C(=O)C(=O)N2CCN2CCOCC2)c1 (stereo not drawn) | inconclusive: 35.5 µM [inhibitor, single point] | 
CCCOc1ccc(Cl)cc1CN1CCOCC1 | inconclusive: 39.8 µM [inhibitor, single point] | 
COC(=O)N/N=C/C1=C[N+](=O)c2ccccc2[N+]1=O |  | inactive: -22.1%
COCCNC(=O)C(c1ccc(C)o1)N(Cc1cccs1)C(=O)c1snc(C(N)=O)c1N (stereo not drawn) | inconclusive: 35.5 µM [inhibitor, single point] | 
CCOC(=O)c1c(/N=C/C2=C(O)CC(C)(C)CC2=O)sc(C(C)=O)c1C | inconclusive: 20 µM [inhibitor, single point] | 
Cc1cc(=O)oc2cc(OCc3ccc(C(=O)N4CCN(c5ccc([N+](=O)[O-])cc5)CC4)cc3)ccc12 | inconclusive: 28.2 µM [inhibitor, partial curve] | 
COC(=O)c1ccc(N=NN2CCCCC2)cc1 |  | inactive: -0.565%
COCCNC(=O)c1ccc2c3n(nc2c1)-c1ccc(C)cc1CO3 | inconclusive: 22.4 µM [inhibitor, partial curve] | 
c1ccc(C[n+]2cccc3c4ccccc4ccc32)cc1 | inconclusive: 31.6 µM [inhibitor, partial curve] | 
O=C(O)c1ccc(-c2nc(-c3ccc(Cl)c(Cl)c3)cs2)cc1 | inconclusive: 35.5 µM [inhibitor, partial curve] | 
CCOc1ccc2c(c1)sc(=NC(=O)C1CC1)n2C | inconclusive: 28.2 µM [inhibitor, partial curve] | 
Cc1nnc(SCC(=O)Nc2cc(S(=O)(=O)N3CCCC3)ccc2Cl)s1 |  | inactive: 5.21%
Cn1c(N)c(C(=O)COC(=O)c2cc(C3CC3)nc3ccccc23)c(=O)n(C)c1=O | inconclusive: 35.5 µM [inhibitor, single point] | 

— PubChem BioAssay AID2147 (National Center for Advancing Translational Sciences (NCATS), 2009)
